Laboratory results published in patent US20260069656A1, “Nutritive Polypeptides and Formulations Thereof, and Methods of Production and Use Thereof” (Axcella Health Inc., priority 2013, published 2026).

Key:
[1] = pH solubility screen in Citric Acid / Dibasic Sodium Phosphate buffers; assay type: physicochemical
Procedure: pH Solubility. […] Protein was either lyophilized and then resuspended in buffer cocktail mixtures, or concentrated and then spiked into buffer cocktail mixtures at a final protein concentration of 5 to 30 mg/ml. As a control, protein was also dissolved in a solution of 8 M urea. Protein solutions were shaken for 10 min at room temperature. Turbidity of proteins was determined by measuring the absorbance of protein solutions at 650 nm. The protein solution was then centrifuged for 10 min at 1100×g to pellet undissolved or precipitated protein. The soluble protein fraction (supernatant) was sampled and protein concentration was measured by one or more of the following methods: Coomassie Plus Protein Assay (Pierce), Chip electrophoresis, gel electrophoresis, and/or absorbance at 280 nm. The pH range over which select proteins remained greater than 80% soluble as determined by Bradford and the A650 value are listed in Table E31C.

[2] = Intact half-life during simulated gastric fluid (SGF) digestion; details: SGF pH 1.5, pepsin:polypeptide 1:20 w/w, 37° C.; produced in E. coli unless otherwise noted
[3] = Thermostability, ProteoStat Thermal Shift Stability Kit, temperature of aggregation; assay type: physicochemical; details: NS = protein not soluble
Procedure: Thermostability. The thermostability of proteins in a buffer cocktail of Citric Acid and Dibasic Sodium Phosphate over a pH range of 2.8 to 7.1 (preparation described above in Table E31B) was determined using the ProteoStat® Thermal Shift Stability Kit (Enzo Life Sciences) according to the manufacturer's standard protocol. Briefly, protein solutions (˜10 mg/ml) containing 1× ProteoStat TS Detection Reagent were heated from 25° C. to 95° C. at a rate of 0.5° C. per 30 sec using a real-time PCR (rtPCR) thermocycler (BioRad) equipped with a plate reader (SynergyMx, Biotek) while monitoring the fluorescence with a Texas Red filter.

B1: SEQID-00103: nutritive polypeptide naturally produced in Rice, recombinantly expressed in E. coli (protein, listed as Oryza sativa)
chain: MEGLTSEQMVAFQEAFLLFDKNGDGCITLEELAAVTRSLGLEPTDQELNDMMREVDTDGNGIIDFQEFLSLIARKMKDGDGDEELKEAFEVLDKDQNGFISPTELRTVMTNLGEKMTDEEVEQMIREADTDGDGQVNYDEFVIMMKNAERKISG
In the case of B1, the “pH Range where Protein is >80% detected as Soluble and A650 <1 OD: Low” value ([1]; lower pH of range) is reported as 5.6, the “pH Range where Protein is >80% detected as Soluble and A650 <1 OD: High” value ([1]; upper pH of range) is reported as 7.1 and the “SGF Half-life (t½)” value [2] is reported as 0.3 min. For the same molecule, the “Tagg pH 3.7” value ([3]; pH 3.7) was 45.5, the “Tagg pH 3.9” value ([3]; pH 3.9) was 41.5 and the “Tagg pH 4.3” value ([3]; pH 4.3) was 37.5. For the same molecule, the “Tagg pH 4.6” value ([3]; pH 4.6) was 59.5, the “Tagg pH 5.0” value ([3]; pH 5.0) was 61 and the “Tagg pH 5.6” value ([3]; pH 5.6) was 62. For the same molecule, the “Tagg pH 6.0” value ([3]; pH 6.0) was 67.5, the “Tagg pH 6.5” value ([3]; pH 6.5) was 95 and the “Tagg pH 7.1” value ([3]; pH 7.1, heated 25° C. to 95° C.) was over 95.

B2: SEQID-00103 (HEK293): nutritive polypeptide (protein, listed as Oryza sativa)
chain: B1 chain
In the case of B2, the “SGF Half-life (t½)” value [2] is reported as under 2 min.

B3: SEQID-00105 (BS): nutritive polypeptide (protein, listed as Saccharomyces cerevisiae)
chain: MSSNLTEEQIAEFKEAFALFDKDNNGSISSSELATVMRSLGLSPSEAEVNDLMNEIDVDGNHQIEFSEFLALMSRQLKSNDSEQELLEAFKVFDKNGDGLISAAELKHVLTSIGEKLTDAEVDDMLREVSDGSGEINIQQFAALLSK
For B3, the “SGF Half-life (t½)” value [2] was 0.5 min.

B4: SEQID-00105 (HEK293): nutritive polypeptide (protein, listed as Saccharomyces cerevisiae)
chain: B3 chain
In the case of B4, the “SGF Half-life (t½)” value [2] is reported as under 2 min.
